The results in this text go back to PubChem BioAssay AID1845198 (Molecular Pharmacology Branch, DTP, NCI, 2023).

For the experiment, the system named is 425362-245-T-J1 tumor spheroids, viability % test/control. In words: Anticancer human tumor 425362-245-T-J1 patient-derived melanoma cell line growth inhibition. To be noted: stronger effect = lower value, spheroids with HUVEC and MSC. An excerpt: Multicellular complex tumor spheroid response to DNA repair inhibitors in combination with DNA-damaging drugs
This study explores the anticancer activities of DNA-damaging drugs and inhibitors of DNA damage repair, both as single agents and in combinations. Complex tumor spheroids comprised of malignant cells, endothelial cells and mesenchymal stem cells served as an in vitro model for human solid tumors. This model system incorporates physiologically relevant features and patient-derived or established malignant cell lines with clinically relevant genetic alterations from many tumor types. Twenty-six patient-derived or established malignant cell lines were evaluated representing sarcoma, melanoma, small cell lung cancer (SCLC), non-small cell lung cancer (NSCLC), as well as bladder, ovarian and pancreatic cancers. The concentration ranges selected for each drug and investigational agent were based upon clinically achievable concentrations if the clinical Cmax of the agent was known.
Compounds. The drugs and compounds olaparib (NSC753686), talazoparib (NSC767125), berzosertib (NSC777718), elimusertib (NSC800525), nedisertib (NSC802822), VX-984 (NSC792969), AZD-1390 (NSC803789), temozolomide (NSC362856), topotecan (NSC609699), trabectedin (NSC813783), staurosporine (NSC755774), and gemcitabine (NSC613327) were obtained from the National Cancer Institute (NCI) Developmental Therapeutics Program Chemical Repository. The FDA-approved anticancer drug set is available from the Developmental Therapeutics Program at https://dtp.cancer.gov/organization/dscb/obtaining/available_plates.htm. […] The stock solutions were prepared in dimethyl sulfoxide (DMSO, Sigma-Aldrich, St. Louis, MO, cat. D2650) at 400-fold the tested concentration and stored at -70 degrees C. Prior to their use, the stock solutions were diluted in fresh medium and the final DMSO concentration in the assay was 0.25% (v/v). […] If the clinical Cmax for an agent had not been determined, the highest concentration tested was 10 microM. […]

Some entries of the source have several records that differ or are many. The list is limited to them. The source may hold further records. The records of an entry are repeated measurements across runs, samples, wells, individuals or studies. Brackets with × say how often a value occurs here.
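Note: spheroids exposed to agents for 7 days; 100% = DMSO vehicle control viability.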

Broadly, the viability, T/C is the result in the treated group divided by that in the control group, in per cent. `Cn1nnc2c(C(N)=O)ncn2c1=O`: the viability, T/C was 90, 97.1, 92.9, 99.2, 88.5, 86.6, 80.5, 95.5, 90.4, 114% (compound alone 1 µM) and 112, 89.1, 108, 107 (2×), 102, 94.9, 106, 119, 124% (compound alone 10 µM).

Consider `CC[C@@]1(O)C(=O)OCc2c1cc1n(c2=O)Cc2cc3c(CN(C)C)c(O)ccc3nc2-1`, for which the viability, T/C (compound alone 0.003 µM) was 108, 78.5, 81.9, 87.1, 82.6, 91, 100, 99.4, 93.2, 109%.
